Read counts are not given, so values of variants with three or more changes are uncertain.

B1: LINE1-full (parent)
chain: UACGUAGGUGGUUUUCCCCUGAUAGUGCUAAGGGGGCCUGGAAGUUUGGACUGGGCAGAGCUCAACACAGCGUGGCAAAGUGGCUGUGGCUAGACUGCCUCUCUGGAUUCCUCGUCACUCAGCAGGGCAUCUCUGAGAGAAAUGCC

The series covers variants of B1. Nature of the series: self-cleavage, relative activity (ratio to wild type); higher = more cleavage; in vitro, sequencing; the parent is a self-cleaving ribozyme.
Consider UACGUAGGUGGUUUUCCCCUGAUUGUGCUAAGGGGGGCUGGAAGUUUGGACUGGGCAGAGCUCAACGCAGCGUGGCAAAGUGGCUGUGGCUAGACUGCCUCUCUGGAUUCCUCGUCACUCAGCAGGGCAUCUCUGAGAGAAAUGCC [A24U C37G A67G], for which the self-cleavage was determined as 0.36.

Take UACGUAGGUGGUUUUCCCCUGAUAAUGCUAGGGGGGCCUGGAAGUUUGGACUGGGCAGAGCUCAGCACAGCGUGGCAAAGUGGCUGUGGCUAGACUGCCUCUCUGGAUUCCUCGUCACUCAGCGGGGCGUCUCUGAGAGAGAUGCC [G25A A31G A65G A124G A129G A141G]: the self-cleavage came out at 0.

Regarding UACGUAGGUGGUUUUCCCCUGAUUGUGCUAAGGGGGCCUGGAAGUUAGGACUGGGCAGAGCUCAACACAGCGUGGCAAAGUGGCUGUGGCUAGACCGCCUCUCUGGAUUCCUCGUCACUAAGCAGGGCAUCUCUGAGAGAAAUGCC [A24U U47A U96C C120A], the self-cleavage came out at 0.

As to UACGUAGGUGGUUUUCCCCUGAUUGUGUUAAGGGGGCCUGGAAGUUUGGACUGGGCAGAGCUCAACACAGCGUGGCAAAGUGGCUGUGGCUAGACUGCCUCUCUGGAUUCUUCGUCACUCAGCGGGGCAUCUCUGAGAGAAAUGCC [A24U C28U C111U A124G], the self-cleavage was 0.85.

For the variant UACGUAGGUGGUUUUCCCCUGAUUGUGCUAAGGGGGCCUGGAAGUUCGGACUGGGCAGAGCUCAACACAGCGUGGCAAAGUGGCUGCGGCUAGACUGCCUCUCUGGAUUCCUCGUCACUCAGCAGGGCAUCUCUGAGAGAAAUGCC [A24U U47C U87C], the self-cleavage was 0.

For UACGUAGGUGGUUUUCCCCUGAUAAUGCUAAGGGGGCCUGGAAGUUUGGACUGGGCAGAGCUCAACACUGCGUGGCAAAGUGGCUGUGGCUAGGCUGCCUCUCUGGAUUCCUCGGCACUCAGUAGGGCAUCUCUGAGAGAAAUGCC [G25A A69U A94G U115G C123U], the self-cleavage was determined as 0.

On to UACGUAGGUGGUUUUCCCCUGAUAAUGCUAAGGGGGCCUGGAAGUUUGGACUGGGCAUAGCUCAACACAGCGUGGCAAAGUGGCUGUGGCUAGACUGCCUCUCUGGAUUCCUCGUCACUCAGCAAGGCAUCUCUGAGGGAAAUGCC [G25A G58U G125A A138G], for which the self-cleavage was determined as 0.04.

Turning to UACGUAGGUGGUUUUCCCCUGAUUGUGCUAAGGGGGCCUGGAAGCUUGGACUGGGCAGAGCUCAACACAGCGUGGCAAAGUGGCUGUGGCUAGACUGCCUCCCUGGAUUCCUCGUCACUCAGCAGGGCAUCUCUGAGAGAAAUGCC [A24U U45C U102C], the self-cleavage is 1.71.

Regarding UACGUAGGUGGUUUUCCCCUGAUUGUGCUAAGGGGGCCUGGAAGUUUGGACUGGGCAGAGCUCAACACAGCGUGGCAAAGUGGCUGGGGCUAGACUGCCUCUCUGGAUUCCUCGUCACUCUGCAGGGCAUCUCUGAGAGAAAUGCC [A24U U87G A121U], the self-cleavage came out at 0.08.

Consider UACGUAGGUGGUUUUCCCCUGAUUGUGCUAAGGGGGCCUGGAAGUUUGGACUGGGCAGAGCUCAACACAGCGUGGCAAAGUGGCUGUGGCUAGACUGCCUCUCUGGAUUCCUCGUAACUCAGCAGGGCAUCUCUGAGAGGAGUGCC [A24U C116A A140G A142G], for which the self-cleavage turned out to be 0.87.

UACGUAGGUGGUUUUCCCCUGAUUGCGCUAAGGGGGCCUGGAAGUUUGGACUGGGCAGAGCUCAGCACAGCGUGGCAAAGUGGCUGUGGCUAGACUGCCUCUCUGGAUUCCUCGUCACUCAGCAGGGCAUCUCUGAGAGAAGUGCC [A24U U26C A65G A142G]: the self-cleavage turned out to be 0.

For UACGUAGGUGGUUUUCCCCUGAUUGUGCUAAGGGGGCCUGGAAGUUUGGACUGGGCAGAGCUCAACACAGCGUGGCAAAGUGGCUGUGGCUAGACUGCCUCACUGGAUUCCUCGUCACUCAGCAGGGCAUCUCUGAGAGAAGUGCC [A24U U102A A142G], the self-cleavage is 0.87.

For the variant UACGUAGGUGGUUUUCCCCUGAUUGUGCUAAGGGGGCCUGGAAGUUUGGACUGGGCAGAGCUCAACACAGCGUGGCAAAGUGGCUGUGGCUAGACUGCCUCUCUGGAUUCCUCGCCACUCAGCAGGGCAUCUCUGAGAGAAAUGCU [A24U U115C C146U], the self-cleavage was found to be 1.63.

UACGUAGGUGGUUUUCCCCUGAUAAUGCUAAGGGGGCCUGGAAGUUUGGACUGGGCAGAGCUCAGCACAGCGUGGCAAAGUGGCUGUGGCUAGACUGCCUCUCUGGAUUCCUCGUCACUCUGCAGGGCAACUCUGAGAGAAAUGCC [G25A A65G A121U U130A]: the self-cleavage amounted to 0.12.

In the case of UACGUAGGUGGUUUUCCCCUGAUUGAGCUAAGGGGGCCUGGAAGUUUGGACUGGGCAGAGCUCAACACAGCGCGGCAAAGUGGCUGUGGCUAGACUGCCUCUCUGGAUUCCUCGUCACUCAGCAGGGCAUCUCUGAGAGAAAUGCC [A24U U26A U73C], the self-cleavage amounted to 0.87.

As to UACGUAGGUGGUUUUCCCCUGAUAAUGCUAAGGGGGCCUGGAAGUUUGGACUGGGCAGAGCUCAACACAGCGUGGCAAAGUGGCUGUGGCUAAACUGCCUCUCUGGAUUCCUCGUCACUCAGCGGGGCAUCUCUGAGAGAAAUGCC [G25A G93A A124G], the self-cleavage turned out to be 0.04.

For UACGUAGGUGGUUUUCCCCUGAUUGUGCUAAGGGGGCCUGGAAGUUUGGACUGGGCAGAGCUCAACACGGCGUGGCAAAGUGGCUGUGGCUAGACUGCCUCUCUGGAUUCCUCGUCACUCGGCAGGGCAUCUCUGAGAGAAAUGCC [A24U A69G A121G], the self-cleavage came out at 0.54.

As for UACGUAGGUGGUUUUCCCCUGAUUGUGCUAAGGGGGCCGGGAAGUUUGGACUGGGCAGAGCACAACACAGCGUGGCAAAGUGGCUGUGGCUAGACUGCCUCUCUGGAUUCCUCGUCACUCAGCAGGGCAUCUUUGAGAGAAGUGCC [A24U U39G U62A C133U A142G], the self-cleavage worked out at 0.13.

As for UACGUAGGUGGUUUUCCCCUGAUAAUGCUAAGGGGGCCUGGAAGUUUGGACUGGGCAGAGCUCAACACUGCGUGGCAAAGUGGCUGUGGCUAGACUGCCUCUCUGGAUUCCUCGUCUCUCAGCAGGGCAUCUCUGAGAGAAAUGCC [G25A A69U A117U], the self-cleavage is 0.03.

Source of the values: the RNAGym collection of RNA variant scans (doi:10.7554/elife.90254).
